# In all, about 350,000 compounds went through this assay and about 9,900 (2.8%) were called active. This list was built around the results that the source calls inconclusive (neither active nor inactive); the mix of calls is not that of the screen. Calls follow the shape of the dose curve; as a rule, active = well fitted activation curve with a large enough effect; inconclusive = small, poorly fitted or top-dose-only effect; inactive = no such curve, though single readings can be large or run the other way. Potencies of inconclusive entries are left out as doubtful fits.
# Assay: A quantitative high throughput screen for small molecules that induce DNA re-replication in MCF 10a normal breast cells. Also: nearly all actives have a fitted effect of over 50% in size.
# Conditions: MCF 10A DNA re-replication, Hoechst nuclear intensity, 48 h; series mostly up to 46.1 µM
# Potency is read from the fitted curve at half-maximal effect; tags tell the direction and shape of the fitted curve.
row,SMILES,Potency
1,O=C(Nc1ccc(Br)cc1)c1cc(-c2ccncc2)nc2ccccc12,"inconclusive [activator, single point]"
2,C#CCOCCOCCOCCNc1nc(N2CCN(C(=O)C([C@@H](C)CC)n3cc(C(N)COC(=O)C(F)(F)F)nn3)CC2)nc(N2CCN(C(=O)[C@H](Cc3cc4ccccc4[nH]3)n3cc(C(N)CO)nn3)CC2)n1 (stereo not given in full),inactive
3,O=C(CNC(=O)Cc1ccccc1)N=Nc1c(O)n(Cc2ccc3c(c2)OCO3)c2ccccc12,inactive
4,CN(CC(=O)Nc1ccc(F)c(F)c1F)C(=O)C1=COCCO1,"inconclusive [activator, full curve, poor fit]"
5,O=c1c2ccccc2oc2ccc(-c3ccc4[nH]ccc4c3)cc12,inactive
6,Cc1cc(C)cc(NC(=O)CSc2nc3ccccc3nc2N2CCCCC2)c1,"inconclusive [activator, single point]"
7,c1ccc(-c2nc3nonc3nc2-c2ccccc2)cc1,"inconclusive [activator, partial curve, poor fit]"
8,CCOC(=O)CCCNC(=O)COC(=O)/C=C/c1ccc2c(c1)OCO2,"inconclusive [activator, single point]"
9,O=C(c1ccncc1)N(c1ccc2oc3c(c2c1)CCCC3)S(=O)(=O)c1ccc(F)cc1,"inconclusive [activator, single point]"
10,Nc1c(C(=O)N2CCCC2)sc2nc(-c3ccccc3)ccc12,active: 18.4 µM
11,C/C(=N\Nc1ccc(C(=O)O)cc1)c1ccc(S(=O)(=O)NCc2ccco2)cc1,inactive
12,Cn1c(=O)oc2cc(S(=O)(=O)NCCC(=O)NCc3ccc(F)cc3)ccc21,inactive
13,C=CCNCC(=O)Nc1sc2c(c1C(=O)Nc1ccc(OC)cc1OC)CCC2,inactive
14,Cc1ccc(S(=O)(=O)N2CCN(C(=O)COC(=O)/C=C/c3ccc(Cl)cc3)CC2)c(C)c1,inactive
15,COc1ccc(C)cc1NC(=O)c1cc(-c2ccccc2)nc2c1cnn2C(C)C,"inconclusive [activator, single point]"
16,Cc1cc(O)c2c(CN3CCN(Cc4ccccc4)CC3)cc(=O)oc2c1,"inconclusive [activator, partial curve, poor fit]"
17,Cc1c(/C=N/NC(=O)c2cccs2)c2ccccc2n1Cc1ccccc1Cl,active: 16.4 µM
18,CCCc1cc(N2CCCC(C(=O)Nc3c(OC)cccc3OC)C2)n2ncnc2n1 (stereo not given),"inconclusive [activator, partial curve, poor fit]"
19,COc1ccc(/C=C2\CCc3ccccc3C2=O)cc1OC,"inconclusive [activator, single point]"
20,CS(=O)(=O)N1CCN(C(=O)c2cc(-c3ccccc3)nc3ccccc23)CC1,inactive
21,CC1CCCCC1NC(=O)COC(=O)c1c2c(nc3ccccc13)/C(=C\c1ccco1)CC2 (stereo not given),active: 18.4 µM
22,Cc1nc(-c2ccccn2)nc(N(C)c2ccccc2)c1Cl,inactive
23,CCOc1ccccc1NC(=O)C(CC(C)C)NC(=O)C1CCCCC1 (stereo not given),"inconclusive [activator, partial curve, poor fit]"
24,c1ccc(-c2cc(N3CCCCCC3)n[nH]2)cc1,"inconclusive [activator, full curve, poor fit]"

row,SMILES,Potency
1,CCc1ccccc1NC(=O)CC(c1ccc(OC)cc1)n1cccc1 (stereo not given),"inconclusive [activator, single point]"
2,COc1ccc(NC(=O)Nc2nnc(-c3ccccc3SCc3ccccc3)s2)cc1,"inconclusive [activator, partial curve, poor fit]"
3,Cc1cc(Cl)c2oc(C(=O)NCCC3CCCCO3)c(C)c2c1 (stereo not given),"inconclusive [activator, single point]"
4,CC1CCN(CCCNC(=O)CCCNC(=O)Cn2cnc3sc4c(c3c2=O)CCCC4)CC1,inactive
5,Cc1cccn2c(=O)c3cc(C(=O)NC4CCCC4)c(=N)n(CCc4ccccc4)c3nc12,active: 2.59 µM
6,CCCCCC#CCN1CCN(C23CC4CC(CC(C4)C2)C3)CC1,inactive
7,O=C(CCNC(=O)Cn1ccc2ccccc2c1=O)NCCCN1CCN(c2ccccc2F)CC1,inactive
8,Cc1cccn2c(=O)c3cc(C(=O)NCc4ccco4)c(=N)n(CCc4ccccc4)c3nc12,active: 2.91 µM
9,COc1ccc(-c2noc(CCCc3ccccc3)n2)cc1OC,"inconclusive [activator, partial curve, poor fit]"
10,Cc1ccc(N2CCN(S(=O)(=O)c3ccc4c(c3)NC(=O)C(C)C(=O)N4)CC2C)cc1 (stereo not given),inactive
11,CC(C)c1ccc(C2CC(c3ccc(Br)cc3)=NN2C(N)=S)cc1 (stereo not given),"inconclusive [activator, single point]"
12,Cc1cnc(C(=O)OCC(=O)N2C(C)CCCC2C)cn1 (stereo not given),inactive
13,O=C(NNC1CC(=O)N(c2ccccc2)C1=O)c1cccnc1 (stereo not given),"inconclusive [activator, full curve, poor fit]"
14,CCCC1(c2ccccc2)NC(=O)N(CC(=O)c2[nH]c(C)c(C(=O)OCC)c2C)C1=O (stereo not given),inactive
15,C=CCc1ccc(OCc2ccc(C(=O)Nc3ccc(NC(C)=O)cc3)o2)c(OC)c1,"inconclusive [activator, single point]"
16,Cc1cc(C)c(/C=N/NC(=O)c2nnn(-c3nonc3N)c2CN2CCC(C)CC2)c(C)c1,"inconclusive [activator, partial curve, poor fit]"
17,Cn1cc(CN2CCC[C@H]2CO)c(-c2cccc(Cl)c2)n1,inactive
18,COc1ccccc1-c1n[nH]c(=S)n1Cc1ccccc1,"inconclusive [activator, full curve, poor fit]"
19,Nn1c(Cc2cccc3ccccc23)n[nH]c1=S,inactive
20,Cn1c(-c2c(N)n(C3CCCC3)c3nc4ccccc4nc23)nc2ccccc21,active: 5.17 µM
21,COc1cc(NC(=O)C2C3C=CC(C3)C2C(=O)O)c(OC)cc1Cl (stereo not given),inactive
22,CCCCOc1ccc(N=Cc2ccc[nH]2)cc1,"inconclusive [activator, single point]"
23,Cc1ccc(NC(=O)C=NOCC(=O)Nc2cc(C)cc(C)c2)cc1,"inconclusive [activator, single point]"
24,COc1ccc2c(c1)c(=O)oc1cc(OCC(=O)N3CCC(C)CC3)ccc12,"inconclusive [activator, single point]"

row,SMILES,Potency
1,O=C(CN1CCN(c2ccccc2)CC1)Nc1c(C(=O)C2CC2)oc2ccccc12,"inconclusive [activator, partial curve, poor fit]"
2,N#Cc1c(N)n(-c2ccc(O)cc2)c2nc3ccccc3nc12,"inconclusive [activator, single point]"
3,CCCCCCCCCCOC(=O)Cn1c(COc2ccc(C)cc2)[n+](C)c2ccccc21,active: 23.1 µM
4,c1ccc(CCNc2nc(-c3ccncc3)cs2)cc1,"inconclusive [activator, partial curve, poor fit]"
5,Cc1ccc(/C=C/c2ccc3cccc(O)c3n2)s1,inactive
6,Cn1nc(C(=O)NC2=NCCS2)ccc1=O,inactive
7,CC(=O)Nc1ccc(S(=O)(=O)NCC(=O)OCC(=O)N2CCN(c3ccccc3)CC2)cc1,"inconclusive [activator, partial curve, poor fit]"
8,CCn1c(=O)c2ccccc2n2c(SCC(=O)N3CCc4ccccc4C3)nnc12,inactive
9,OC1c2cc(Br)ccc2N=C2CCCN21 (stereo not given),"inconclusive [activator, single point]"
10,COCCN(C(=O)c1ccc(N2C(=O)c3ccccc3C2=O)cc1)c1c(N)n(CC(C)C)c(=O)[nH]c1=O,inactive
11,CC(=O)N1c2ccc(S(=O)(=O)N(C)CC(=O)NC3CCCCC3C)cc2CC1C (stereo not given),inactive
12,CCOC(=O)c1ccc(N2C(=O)c3n[nH]c(-c4ccco4)c3C2c2ccc([N+](=O)[O-])cc2)cc1 (stereo not given),"inconclusive [activator, partial curve, poor fit]"
13,O=S(=O)(NCCc1ccc(F)cc1)c1ccc(F)cc1Br,"inconclusive [activator, full curve, poor fit]"
14,Cc1ccnc(NS(=O)(=O)c2ccc(NC(=O)c3cc(-c4ccc(Br)cc4)nc4ccccc34)cc2)n1,"inconclusive [activator, partial curve]"
15,Cc1ccc(NC(=O)OC(C)N2CCCCC2)cc1NC(=O)OC(C)N1CCCCC1 (stereo not given),inactive
16,C[C@H](NC(=O)c1nc[nH]c1C(=O)N[C@@H](CCCCN)C(=O)OC(C)(C)C)C(=O)OCc1ccccc1,inactive
17,CN(C(=S)Nc1ccc(SC(F)F)cc1)C(c1ccccc1)c1ccccc1,"inconclusive [activator, single point]"
18,COc1ccccc1-c1ccc(/C=C2/C=C(CC(C)C)OC2=O)o1,"inconclusive [activator, single point]"
19,CCC1(c2ccccc2)SCC(c2ccccc2)=NC1=O (stereo not given),"inconclusive [activator, single point]"
20,COc1ccc(NCc2cc(=O)oc3cc(NC(C)=O)ccc23)cc1,inactive
21,CCc1csc(CCNC(=O)C2CCC(=O)N(Cc3ccccc3F)C2)n1 (stereo not given),"inconclusive [activator, single point]"
22,CCOc1ccc(NC(=O)CC2C(=O)N(C)C(=S)N2CCCc2ccccc2)cc1 (stereo not given),"inconclusive [activator, single point]"
